# Assay results published in PubChem BioAssay (NCI).
# Some structures have more than one record in an assay (separate samples or runs), and their calls can disagree.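 In brief: 96-well plates, 48 h treatment, single concentration, percent growth endpoint.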 A number of entries come with more than one value. The other results are left out here. Rule for the calls: active = growth percent below 10; inactive = the rest. There may be further records. This drug was run again and again over the years, at the concentration stated with the values; one value stands for one run. Marks such as (2×) stand for listed records that agree.
# System: UACC-257 melanoma
# Assay: NCI-60 one-dose screen, 48 h (100 = growth as untreated, 0 = no growth, -100 = all killed)
# Conditions: 0.25 µM
structure (smiles),measurement,setting,value
COc1cccc2c1C(=O)c1c(O)c3c(c(O)c1C2=O)C[C@@](O)(C(=O)CO)C[C@@H]3OC1CC(N)C(O)C(C)O1 (stereo not given in full),growth,runs of 2006,inactive: 28.3% and active: -21.1%
same,growth,runs of 2007,"inactive: 30.1, 43.4 (2×), 26.9, 48.8, 49.1, 57.6, 43.9, 42.3, 52.6, 50.5, 58.8, 61.3, 64.6, 16.5, 63.3, 47.5, 40.4, 55, 37.6, 23.7, 59.6, 29.9, 69.1, 49.4, 72.6, 31.6, 43.3, 66, 55.9, 16.1, 39.3, 26.8, 52.4, 73, 65.9, 60.4, 71.3, 83.4% and active: 8.15%, 3.72%"
same,growth,runs of 2008,"inactive: 85.1, 23.6, 25.2, 52.6, 75.9, 49.5, 38.5, 54, 58.8 (2×), 77.6, 10.9, 46.9, 13.2, 60.2, 52.7, 30.6, 47.3, 15.4, 12.7, 45.9, 36.2 (2×), 54.6, 97.2, 54.8, 45.4, 32.6, 36.9, 27.2, 36.6, 29.1, 26.1, 29, 51.2, 52.9, 25.6, 26.6, 66, 41.5, 61.8, 65.4, 54.3, 51.4, 69.1, 44.4, 18.4% and active: 3.31, 3.36, 2.36, -2.34%"
same,growth,runs of 2009,"inactive: 63.1, 60.2, 53.1, 47.1, 67.7, 81.2, 84.7, 61.1, 69.3, 65.2, 80, 69.7, 61.8, 57.8, 69, 68.3, 65.9, 70.8, 68, 55.8, 50.5, 45.7, 37.2, 46.2, 35.5, 34, 23.3, 33, 41.7, 33.9, 30, 24.9, 18.1, 30.8 (2×), 29.5, 35.3, 54.9, 39.2, 40.6, 26.4, 36.5, 38.8, 38.2, 56.6, 64.9, 35.6 (2×), 47.2, 26.8, 47.3, 36.2, 46.6, 21.7, 19.1, 32.1, 47.8, 62.8, 43.4, 32.3, 30.7, 53.5, 11.9, 46.1, 39.4, 33.3, 33.5, 43.1, 46.4% and active: 3.7%, 7.02%"
same,growth,runs of 2010,"inactive: 49.8, 44.6, 43.7, 37, 31.7, 50.7, 41.1, 48.2, 34.7, 50.1, 44 (2×), 33.9 (2×), 37.2, 46.6, 34.8, 23.9, 27.5, 55.8, 26.7, 27.2, 39, 52.5, 49.7, 29.2, 36.9, 48, 46.2, 44.2, 36.2, 21.7, 28.2, 44.5, 54.2, 54, 55.7, 62, 55.9, 50.3, 47.7 (2×), 50.4, 46.9, 40.9, 42, 43.2, 28.1, 36.1, 47.4, 47.1, 33.6, 43.1, 41.9%"
same,growth,runs of 2011,"inactive: 50.4, 40.7, 48.7, 45.9, 47.5 (2×), 49.3, 41.2, 30.8, 43.2, 30.4, 61.8, 43.4, 48.6, 66.3, 59.1, 67 (2×), 61.6, 67.7, 64.5, 62.8, 57.3 (2×), 63, 63.3, 65.5, 68.7, 61.1, 54.6, 70.4, 64.6, 50.8, 46, 60.2, 34.4, 40.6, 32.4, 69.5, 45.5, 50.1, 40.5, 35.8, 48, 51.2, 42.5, 64.9, 56.6 (2×), 42.1, 55.4, 66.4, 67.2, 48.2, 47.2, 46.8%"
same,growth,runs of 2012,"inactive: 39.7, 33.7, 31.2, 38.5, 35.7, 34.9, 42.6, 51.4, 25.9, 15.6, 33.1, 31.5, 35.5, 31.4, 32.4, 13.7, 21.7, 40.8, 20.7, 32.3, 44.4, 45.9 (3×), 60.1, 54.8 (2×), 48.8, 46.8, 58.3, 57.3, 47.2 (2×), 55.6, 46.7, 51.8, 50.3, 61.7 (2×), 69.2, 63.1, 33.8, 17.4, 44.2, 61.8, 62.2, 52.7, 67.6, 65.2, 40.2, 41.3, 49.5, 55.8, 55.3, 45.4, 58.5, 71.4, 54, 40.7, 56.5, 42.9, 36.6% and active: 9.14%, 7.3%"
same,growth,runs of 2013,"inactive: 39.7, 42.2 (2×), 52.3, 59.5, 52.9, 73.1, 47.5 (2×), 42.7, 44.5, 64.7, 50.7 (3×), 43, 72.6, 56.5, 54.3, 49.2, 62.8, 61.7, 49.5, 55.8, 57.7, 62.5, 65.1, 57.3 (2×), 71, 77.2, 82, 59.8 (2×), 55.3, 50.6, 58, 60.1, 57.2 (2×), 60, 59, 50.1 (2×), 56.2, 66.8, 61.3 (2×), 55.6, 63.2, 38, 50.8, 63.8, 41.3, 52.1, 39.9 (2×), 45.9, 43.6, 42.3, 40.7, 32.7%"
same,growth,runs of 2014,"inactive: 50.3 (2×), 51.9, 54.6, 46, 43.4, 50.2, 48.2 (2×), 35.7, 43.3, 41.4, 60.5, 52.3, 47.2, 51.2, 59.2, 50.8, 49.7, 57.3, 55.5, 49.2, 45.5, 44.7, 56.8, 58.8, 55.3, 59.4, 56.1, 57.7, 58.9, 53.5, 58.4, 60.9, 57.8, 46.9, 47.1, 48.5 (2×), 47.4, 55, 42.2, 41.3, 38.3, 41.5, 39.1, 56.9, 38, 59.1, 32, 42.6, 48.3, 45, 50.1, 56.5, 55.7, 54.2, 47.6, 21.2, 40, 34.5, 37.8, 43.8, 52.2, 45.4, 34.8, 28.4, 41.6, 28.8, 39.2%"
same,growth,runs of 2015,"inactive: 49.1 (2×), 40.9 (2×), 32.6 (2×), 46.9, 38.3, 40.8, 46, 39.6 (2×), 33.2, 38.8, 45.6, 34.3, 22.7, 23.2, 35.7, 29.9, 28.5, 47.3, 40.3, 47.8, 33.7, 38.7, 42.3 (2×), 29.6, 34.6, 30.8 (2×), 47.5, 24.8, 45.9, 41.1 (2×), 35.4, 40.5, 44.4, 39.9, 39.7, 34.8, 48, 50.5, 47.2, 55.9, 48.1, 55.5, 58.2, 46.4, 50.1, 52.7, 44.1, 57.9, 46.2, 53.6, 46.7%"
same,growth,runs of 2016,"inactive: 51.9, 46.7, 48.8, 58.9, 50.9 (2×), 62.7 (3×), 61.7, 48, 36.6, 42, 44.4, 35 (2×), 40.7, 48.7, 47.6 (2×), 36.5, 35.4, 46.8, 43.1, 44.9, 43.4, 22.8, 37.3, 37.9, 40.2, 40.1, 47.3, 44.6, 46.6, 50.5, 52.7, 63.5 (2×), 49.1, 60, 61.2, 53.2 (2×), 57.2, 56.2, 59.2, 57.6, 59.7, 59.8, 65, 54.6 (2×), 65.2, 68, 62, 61, 51.2, 55.3, 48.5, 55.1 (2×), 61.5, 52.9, 61.4, 64.2, 70.8, 63.2, 55.9, 58.7, 56.1, 58.3, 61.1, 63, 65.1, 72.1, 62.5%"
same,growth,runs of 2017,"inactive: 54.2 (2×), 53.3 (3×), 46.1, 67.3, 52.6, 46.2 (3×), 50.8, 42 (2×), 44.6, 44.1, 35.3, 49.7, 49.3 (2×), 48.2 (2×), 46.4, 42.4, 41.1, 43.6, 44 (2×), 48.6 (2×), 47.7 (2×), 47.1, 47.6, 54.6 (2×), 35.4, 52.9, 55.1, 52.4, 57.6, 57.7, 49.4, 46, 52.3, 48.1, 56.7, 43.9, 55.9, 49.5, 42.6, 51.5, 46.7, 43.3, 47.8, 54.8, 49.8 (3×), 53.1, 48.7, 43, 48.8, 38.7, 50.7, 46.9, 51.2, 52.7, 56, 45, 40.5, 56.9, 47.3, 45.2, 48.5, 50.6%"
same,growth,runs of 2018,"inactive: 46.6, 41.9, 47.7, 42.7, 53.6, 55.5, 49.8 (2×), 48 (2×), 48.2, 43.4 (2×), 46.3, 47.5, 48.5, 55.8 (2×), 56.4 (2×), 52.1 (2×), 49.5, 52.6, 51.2, 43.8 (2×), 51.5 (2×), 43.7, 43.6, 46.9, 50.5, 44, 41.4, 52.9, 48.3, 44.1, 57.6 (2×), 50.3, 46.8, 53.1, 52.7, 44.2, 49.1, 37.5, 43.1, 23.4, 27.8%"
same,growth,runs of 2019,"inactive: 37.7, 23.8, 30.8, 32.5, 29.2, 35, 27.2, 29.1, 41.3, 43.7, 33.6, 42.4 (2×), 49.8, 52.7, 47.2, 37.5, 51.6, 47.4, 47.1, 46.9, 34.5, 54.3 (2×), 57.8, 46, 34.8 (2×), 56.1, 40.8, 43.1 (2×), 40.5 (2×), 46.7, 41.7, 43.4, 48.2, 42.8 (2×), 47.3 (2×), 37.8, 49.7, 47.7, 44.7, 44.1, 40.3, 38.2%"
same,growth,runs of 2020,"inactive: 31.1, 35.3, 36.5, 40.8 (2×), 43.8 (2×), 44.4, 44.3, 46.5, 42.4, 50.8, 42.5, 44.1, 54.3, 47.8, 60, 47.2, 43.9, 48.9, 53.4, 57.6, 54, 48.5%"
